In experiment [1] the target is T1, ATP sulfurylase isoform ATPS1 (A. thaliana), Q9LIK9.
T1 chain: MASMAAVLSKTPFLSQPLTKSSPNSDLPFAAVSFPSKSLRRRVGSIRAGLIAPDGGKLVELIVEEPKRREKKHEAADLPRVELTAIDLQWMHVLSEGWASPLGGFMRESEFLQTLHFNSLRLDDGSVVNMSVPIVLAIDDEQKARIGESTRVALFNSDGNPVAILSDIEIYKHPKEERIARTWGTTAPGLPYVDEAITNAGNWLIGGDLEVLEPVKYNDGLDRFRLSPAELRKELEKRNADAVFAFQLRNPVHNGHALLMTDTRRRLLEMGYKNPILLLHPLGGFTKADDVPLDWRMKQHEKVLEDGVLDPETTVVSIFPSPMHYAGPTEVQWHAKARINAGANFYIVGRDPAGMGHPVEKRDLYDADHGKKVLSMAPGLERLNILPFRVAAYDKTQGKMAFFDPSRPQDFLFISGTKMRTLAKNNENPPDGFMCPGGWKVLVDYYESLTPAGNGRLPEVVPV
In words: two-hybrid; yeast two-hybrid, ORFs in pDEST-GAD or pDEST-GBK (GAL4 AD and BD fusions); the panel of enzymes and LSU proteins tested in both orientations; growth on selection media, plates 3 days at 30°C. The following applies: remark: other sources report otherwise.

Experiment [2] addresses T2, sulfite reductase (SiR) (A. thaliana) (UniProt Q9LZ66).
T2 sequence: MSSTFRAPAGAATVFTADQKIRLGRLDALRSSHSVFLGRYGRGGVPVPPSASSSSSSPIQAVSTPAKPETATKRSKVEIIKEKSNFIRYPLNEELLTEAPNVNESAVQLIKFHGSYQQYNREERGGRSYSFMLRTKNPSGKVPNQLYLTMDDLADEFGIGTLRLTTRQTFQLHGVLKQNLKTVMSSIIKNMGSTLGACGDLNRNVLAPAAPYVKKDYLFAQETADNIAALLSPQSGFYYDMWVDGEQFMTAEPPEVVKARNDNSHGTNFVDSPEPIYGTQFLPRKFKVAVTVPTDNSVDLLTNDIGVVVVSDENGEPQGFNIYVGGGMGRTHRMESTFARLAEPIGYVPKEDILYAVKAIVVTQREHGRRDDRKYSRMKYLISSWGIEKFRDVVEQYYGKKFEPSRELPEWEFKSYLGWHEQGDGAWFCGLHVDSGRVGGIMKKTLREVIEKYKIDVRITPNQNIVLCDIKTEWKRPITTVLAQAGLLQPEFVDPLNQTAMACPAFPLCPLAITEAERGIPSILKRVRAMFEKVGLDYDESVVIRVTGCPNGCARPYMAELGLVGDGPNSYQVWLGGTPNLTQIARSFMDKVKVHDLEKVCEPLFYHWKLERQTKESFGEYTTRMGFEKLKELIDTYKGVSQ
The experiment is described as above.

Results are given in words; binding and its absence hold for the method and conditions named. Some results given as binding are weak or reduced against the parent protein; the word gives no strength.

B1: LSU4 (RESPONSE TO LOW SULFUR 4), Q8L8S2 1-92 (protein)
chain: MGKGGNYVMVAASEVEELRQKNGEMEKAVEEMRKEMLQLWRRTQVAEEAEEHLCSQLAELEAESLDQARDYHTRIIFLTNQLSRFSSDSASP
For the molecule B1, the binding result in experiment [1] is “binds”.

B2: ZIP protein, DNA-binding domain (bZIP domain) of ABF3 (domain or fragment, UniProt Q9M7Q3 372-435)
chain: IERRQKRMIKNRESAARSRARKQAYTMELEAEIAQLKELNEELQKKQVEIMEKQKNQLLEPLRQ
For the molecule B2, the binding entry in experiment [2] was “no binding”.

B3: LSU1 (RESPONSE TO LOW SULFUR 1), Q9SCK1 1-94 (protein)
chain: MANRGGCVTVAAEEMDELRRRNIELSREVAEMKTEMIKLWQRTVVAEEAEEQLCSQLAELEVESLEQARDYHDRMLFLMDQISRLSSSSVVSSS
As to B3, the binding result in experiment [1] is listed as “binds”.

B4: LSU2 (RESPONSE TO LOW SULFUR 2), Q9FIR9 1-94 (protein)
chain: MGKGGNYVTVAASEVDELRRKNGEMEKAVEEMKKEMLQLWRRTQVAEEAEERLCSQLAELEAESLDQARDYHSRIIFLMNELSRLSSDSASASP
As to B4, the binding entry in experiment [1] was “binds”.

B5: LSU3 (RESPONSE TO LOW SULFUR 3), Q9SCK2 1-97 (protein)
chain: MGKGGGYVTVAAEEVEELRRRNGELEREMEEMKKEMVQLWRRTVVAEEAEERLCSQLAELEVESLDQARDYHSRIVFLMDQISRLSSSSLEVVVTNS
B5: the binding entry in experiment [1] is “binds”.

These data come from publication PMC11658185, “Analysis of the quadruple lsu mutant reveals molecular determinants of the role of LSU proteins in sulfur assimilation in Arabidopsis” (The Plant Journal, 2024).
